The source of these data is ChEMBL document CHEMBL4888484, “Replenishing the malaria drug discovery pipeline: Screening and hit evaluation of the MMV Hit Generation Library 1 (HGL1) against asexual blood stage Plasmodium falciparum ,using a nano luciferase reporter read-out” (2022).

Broadly, the % Inhibition is the change of the read-out against control, counted positive when it falls.

The whole screen tested about 150,000 compounds, of which about 540 (0.36%) showed an effect of 50% or more. The list shows a part of the results.

The assay concerns Plasmodium falciparum. Put plainly: Primary screen in NF54 nanoGlo assay, in single point, at 2uM, 72h; a lower Z score goes with more inhibition. The format is functional, Erythrocyte. The following applies: timepoint 72 hour.
For `CN1CCCC[C@H](CC(=O)N2CCN(c3cccc(Cl)c3)CC2)C1=O`, the “% Inhibition” value is recorded as -2% and the Z score was determined as 0.29.
The matching figures for `O=C1N(Cc2cccnc2)CCC[C@@]12CCN(c1nc(CO)cs1)C2`: -6% and 0.67.
For `CCN(Cc1ccccc1)c1ccc(NS(=O)(=O)c2ccccc2Cl)cc1C(=O)O`, in that order: -11% and 1.09.
The matching figures for `OCCN(Cc1cccnc1)c1nc(-c2ccsc2)nc2scc(-c3ccccc3)c12`: 0% and -0.06.
As for `COc1ccc(Cl)cc1-c1cnsc1`, the “% Inhibition” value is 1% and the Z score is given as -0.16.
Regarding `CCS(=O)(=O)NC(=O)c1ccnn1C(C)C`, the “% Inhibition” value is on record as 13% and the Z score is listed as -1.69.
`Cc1cc(NC(=O)c2cc(O)ncn2)sn1`: the “% Inhibition” value was -7% and the Z score is reported as 1.14.
The matching figures for `CCOC(=O)[C@@H]1CCc2sc(N)nc21`: -6% and 0.7.
For `c1ccc2oc(NC[C@H]3COCO3)nc2c1`, in that order: 10% and -1.1.
The matching figures for `Cc1cnn(Cc2nnnn2-c2ccccc2)c(=O)c1`: -12% and 1.21.
Consider `CCC(N[C@@H]1C=C[C@H](CO)C1)c1nccn1C` (stereo partly specified), for which the “% Inhibition” value is given as -1% and the Z score is 0.14.
For `CN(C)CCNC(=O)C1CCN(C(=O)c2cc3ccsc3n2Cc2ccc(Cl)cc2)CC1`, the “% Inhibition” value turned out to be 0% and the Z score stood at 0.02.
For `O=C(NCc1ccc(CO)c(F)c1)[C@@H]1CCCCO1`, in that order: -3% and 0.46.
`CCC1Oc2cc(C(C)NC(=O)C3CC4C=CC3C4)ccc2NC1=O` (stereo unspecified): the “% Inhibition” value was 14% and the Z score is reported as -1.92.
For `O=S(=O)(N[C@H]1CCOC[C@@H]1O)c1ccc(F)c(Cl)c1`, in that order: -2% and 0.43.
`CCc1ccc(-c2cc(-c3nc(N)sc3C)nc(N)c2C#N)o1`: the “% Inhibition” value is listed as -9% and the Z score was determined as 1.24.
The matching figures for `CCN(CC(F)(F)F)C(=O)c1ccc(-c2cncn2C)cc1`: -19% and 2.89.
The matching figures for `Cc1n[nH]c(C)c1NS(=O)(=O)c1cccc2cncc(Br)c12`: -4% and 0.51.
Take `CC1=C[C@@H](CNS(=O)(=O)c2ccccc2)[C@H](C(C)C)C[C@H]1Cc1nc2ccncc2[nH]1`: the “% Inhibition” value is -7% and the Z score is reported as 1.01.
For `O=C(N[C@H]1CO[C@@H](CN2CCC(F)(F)C2)[C@@H]1O)c1cccc(F)c1`, in that order: 29% and -3.24.
For `CC(C)(C)OC(=O)C1C[C@@H](N)[C@@H](n2cc(C(C)(C)C)nn2)C1` (stereo partly specified), in that order: -7% and 1.24.
The matching figures for `Cc1cc(CN(C)C[C@H]2CC23CC3)no1`: -3% and 0.59.
Regarding `O=C(Nc1ccnn1C1CCCC1)c1ccco1`, the “% Inhibition” value is -5% and the Z score came out at 1.02.
For `CCc1cccc(NC(=O)Cc2nc(-c3cccnc3)n[nH]2)c1`, in that order: -13% and 2.1.
The matching figures for `CC(OC12CCCCC1C(c1ccccc1)C2(C#N)C#N)c1ccccc1` (stereo unspecified): -1% and 0.13.
For `COc1ncc(CN2CC[C@@]3(CCCN(Cc4ccc(F)c(F)c4)C3=O)C2)cn1`, the “% Inhibition” value is -16% and the Z score was 3.
For `CNC(=O)Cn1cnc(NS(=O)(=O)c2ccccc2Cl)n1`, in that order: 2% and -0.31.
For `Cc1sc(NC(=O)c2cc(-c3cccnc3)nc3ccc(Cl)cc23)c(C(=O)NCc2cccnc2)c1C`, the “% Inhibition” value is reported as -3% and the Z score is 0.41.
For `CCC[C@H](C)NC(=O)CN(CCO)C1CC1`, in that order: -7% and 0.86.
Regarding `CC(C)C(=O)N1CCC[C@@H]1Cc1noc(-c2cnccn2)n1`, the “% Inhibition” value is -2% and the Z score stood at 0.29.
Consider `c1ccc(-c2nc3cccnc3nc2N2CCCCC2)cc1`, for which the “% Inhibition” value is given as -5% and the Z score was 0.66.
For `COCCn1ccnc1-c1nc2c([nH]1)c(C)nn2C(C)C`, in that order: -5% and 0.66.
Take `C[C@H]1C(=O)N(C)CCN1C(=O)c1coc(COc2ccc(F)cc2Cl)n1`: the “% Inhibition” value is -14% and the Z score was determined as 2.31.
For `CC(C)c1nc(-c2nccn2CCN2CCOCC2)co1`, in that order: -10% and 0.92.
For `COC(C)c1cccc(NC(=O)N(C)CC(O)C(F)(F)F)c1` (stereo unspecified), in that order: -1% and 0.08.
The matching figures for `CCn1nnc(C)c1CN1Cc2cn[nH]c2C[C@H](C)C1`: 2% and -0.39.
With `Cc1nn(CC(=O)NCc2cccnc2)c(=O)n1Cc1ccccc1`, the “% Inhibition” value was -7% and the Z score was found to be 1.45.
With `O=C(Nc1ccc2c(c1)OCO2)C(C1CC=CCC1)N(Cc1ccc(Cl)cc1)C(=O)Cn1nnc2ccccc21` (stereo unspecified), the “% Inhibition” value was -30% and the Z score turned out to be 3.52.
Take `Cc1cc(F)ccc1-n1cc(O)c(C(=O)N2CCC[C@H](N3CCCC3)CC2)n1`: the “% Inhibition” value is reported as -5% and the Z score is on record as 0.75.
For the compound `CC(C)(C)CCN1CCn2c(nnc2[C@@H]2C[C@@H](O)CN2Cc2ccncc2)C1`, the “% Inhibition” value turned out to be 1% and the Z score is -0.17.
For `Cc1cccc([C@H](C)NS(=O)(=O)N2CCN(C)CC2)n1`, the “% Inhibition” value is listed as -2% and the Z score amounted to 0.29.
For the compound `CCCn1c(C)cnc1[C@H]1CCN(C(=O)Nc2ccc3c(c2)OCCO3)C1`, the “% Inhibition” value is listed as -6% and the Z score was 0.96.
Turning to `O=C(N1CC2CCC(O)CC2C1)C1(c2cccnc2)CCCC1` (stereo unspecified), the “% Inhibition” value is 9% and the Z score is given as -1.24.
